According to the RNAGym collection of RNA variant scans (doi:10.1093/nar/gkz1192):
The source gives no read counts; variants with many changes may rest on few reads.

B1: CPEB3 Ribozyme (parent)
chain: UAACAGGGGGCCACAGCAGAAGCGUUCACGUCGCAGCCCCUGUCAGAUUCUGGUGAAUCUGCGAAUUCUGCUGUAUAUCUC

Variants of: B1
Assay: self-cleavage, relative activity (ratio to wild type); higher = more cleavage; in vitro, sequencing
How it was run: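 Relative activity was defined as the cleaved/total read fraction for a variant divided by the same fraction for the unmutated ribozyme. CPEB3 self-cleaving ribozyme libraries were made by rounds of error-prone PCR, barcoded, and transcribed in vitro with T7 RNA polymerase for 5 hours at 37°C, and cleavage ran through transcription plus a 15 min DNase I step before EDTA. Illumina sequencing of template-switched reverse transcripts gave the reads, and DNA sequencing mapped the barcodes. Averages come from three batches, using variants with at least 5 reads.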

Variant | self-cleavage
UAACAGGGGGCCACAGCAGGAGCGUUCGCGUCGCAGCCCCUGUCAGAUUCUGGUGAAUCUGCGAGUUCUGCUGUAUAUCGC | 0.2
UAACAGGGGGCCACAGCAGCAGCGUUCACGUCGCAGCCCCUGUCAGAUUCUGGAGGAUCUGCGGAUUCUGCUGUAUAUCUC | 0.33
UAACAGGGGGCCACAGCAGGCGCGUUCACGGCGCAGCCCUUGUCAGAUUCUGGCGAAUCCGCGAAUUCUGCUGUAUAUCUC | 0.04
UAACAGGGGGCCACAGCAGGAGCGUUCGCGUCGCGGCCACUGUCAGAUUCUGGUGAGUCUGCGAAUUCUGCUGUAUAUCUC | 0.24
UAACAGGGGGCCACAGCAGCAGCGUUCACGUCGCAGCCCCUGCCAGAUUCUGGUGAAUCUGCGAAUUCUGCUGUAUAUCGC | 0.24
UAACAGGGGGCCACAGCAGCAGCGUUCACGUCGCAGCCCCUGCCAGAUUCUGGUGAAUCUGCGAAUUCUGCUGUAUAUAUC | 0.34
UAACAGGGGGCCACAGCAGGAGCGUUCGCGUCGCAGCCCCUGUUAGAUUCUGGUCAAUCUGUGAAUUCUGCUGUAUAUCUC | 0.13
UAACAGGGGGCCACAGCAGCAGCGUUCACGUCGCAGCCCCUGUCAGAUUCUGGUGAAUCUGCGAAACCUGCUGUAUAUCUC | 0.15
UAACAGGGGGCCACAGCAGGAGCGUUCGCGUCGCUGCCCCUGUCAGAUUCUGGUUAAUCUGCGAAUUCUGCUGUAUAUCUC | 0.18
UAACAGGGGGCCACAGCAGCAGCGUCCACGUCUCAGCCCCUGUCAGAUUCUGGUGAAUCUGCGAGUUCUGCUGUAUAUCUC | 0.06
UAACAGGGGGCCACAGCAGGGGCGUUCCCGUCGCAGCCCCUGUCAGGUUCUGGUGAAUCUGCGAAUUCUGCUGUAUAUCUC | 0.37
UAACAGGGGGCCACAGCAGGGGCGUUCCCGUCGCAGCCCCUGUCAGAUUCUGGUGAAUCUGCGAAUUCUGCUGUAUAUCUC | 0.4
UAACAGGGGGCCACAGCAGCAGCGUUCACGUCGCAGCCCCUGUGAGAUUCUGGUGAAACUGCGAAUUCCGCUGUAUAUCUC | 0.17
UAACAGGGGGCCACAGCAGGGGCGUUCACGCCGCAGCCCCGGUCAGAUCCUGGUGAAUCUGCGAAUUCUGCUGUUUAUCCC | 0.59
UAACAGGGGGCCACAGCAGGGGCGUCCACGUCGCUGCCCCUGUCAGAUUCUGGUGAAUCUGCGAAUUCUGCUGUAUAUCUC | 0.45
UAACAGGGGGCCACAGCAGGAGCGUUCGCGUCGCAGCCCCUGUCAGAUUCUGGUGAAUCUGCGAGUUCUGCUGUAUAUCUC | 0.09
UAACAGGGGGCCACAGCAGGUGCGUUCACGUCGCAACCCCUGUCAGAUUCUGGUGAAUCUGCGAAUUCUGCUGUAUAUCUC | 0.25

Variant | self-cleavage
UAACAGGGGGCCACAGCAGCAGCGUUCACGUCGCAGCCCCUGUCAGAUUCUGGUGAAUCUGCGUAUUCUGCUGUAUACCUC | 0.33
UAACAGGGGGCCACAGCAGCAGCGUUCACGACGCAGCCCCUGUCAGAUUCUGGUGAAUCUGCGAAUUCUGCCGUAUAUCUC | 0.1
UAACAGGGGGCCACAGCAGCAGCGUCCACGUCGCAGCCCCUGUCAGAUUCUGGUGGAUCAGCGAAUUCCGCUGUAUAUCUC | 0.08
UAACAGGGGGCCACAGCAGGGGCGUUCACGUCGCAGCCCCCGCCAGAUUCUGGUGAAUCUGCGAACUCUGCUGUAUAUCUC | 0
UAACAGGGGGCCACAGCAGGGGCGUACACGUCGCAGCCCCUGUCAGGUUCUGGUGAAUCUGCGAAUUCUGCUGUAAAUCUC | 0.05
UAACAGGGGGCCACAGCAGGGGCGUUCCCGUCGCAGCCCCUAUCAGAUACUGGUGAAUCUGCGAAUUCUGCUGUAUAUCUC | 0.32
UAACAGGGGGCCACAGCAGGGGCGUUCACGUCGCAGCCCCUGUCGGAUUCUGGUGAGUCUGCGAAUUCUGCUGUAUAUCUC | 0.08
UAACAGGGGGCCACAGCAGGGGCGUUCACGUCGCGGCCCCUGUCGGAUUCUGGUGAAUCUGCGAAUUCUGCUGUAUAUCUC | 0.56
UAACAGGGGGCCACAGCAGCAGCGUUCACGUCGCAGCCCCUGUAAGAUUCUGGUGAAUCUGCGAAUUCUGCCGUAUAUCUC | 0.23
UAACAGGGGGCCACAGCAGCAGCGUUCACGUCGCAGCCCCUGUCAGAUUCUGGUGAACCUGCGAAUUCUGCAGUAUAUCUC | 0.12
UAACAGGGGGCCACAGCAGGAGCGUUCGCGUCGCCGCCCCUGUCAGAUUCUGGUGAAUCUGCGAAUCCUGCUGUAUAUCUC | 0.28
UAACAGGGGGCCACAGCAGCAGCGUUCACGUCGCAGCCCCUGUCAGAUUCUGGCGAAUCAGCGAAUUCUGCUGUAUAUCUC | 0.12
UAACAGGGGGCCACAGCAGCAGCGUUCACGUUGCAGCCCCUGUCAGACUCUGGUGAAUCUGCGGAUUCUGCUGUAUAUCUC | 0.05
UAACAGGGGGCCACAGCAGGAGCGUUCGCGUCGCAGCCCCUGUCAGAUUCUGGUGAAUCUGCGAAUUCUGCUGUUUAUCUC | 0.41
UAACAGGGGGCCACAGCAGGAGCGUUCGCGUCGCGGCCCCUGACAGAUUCUGGUGAGUCUGCGAAUUCUGCUGUAUAUCUC | 0.98
UAACAGGGGGCCACAGCAGCAGCGUCCACGUCGCAGCCCCUGUCAGAUUCUGGUGAAUCUGCGAAUUCUGCCGUACAUCUC | 0.35
UAACAGGGGGCCACAGCAGGGGCGCUCACGUCGCAGCCCCUGUCAGAUUCUGGUGAAUCUGCGGAUUCUGCGGUAUAUCUC | 0.03
